Test results as given in paper PMC4336329 (PLoS ONE, 2015).
In all, about 310,000 compounds went through this assay and about 14,000 (4.5%) showed an effect of 50% or more. Effects have a minus sign here. The list shows a part of the results.

target: human ether-à-go-go-related gene (hERG) potassium channel (human, UniProt Q12809); test: primary screen, population patch clamp on CHO cells stably expressing hERG
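Further: peak tail current of the secondary pulse compared with the same well before compound.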

Chain of human ether-à-go-go-related gene (hERG) potassium channel (Q12809 whole entry, looked up): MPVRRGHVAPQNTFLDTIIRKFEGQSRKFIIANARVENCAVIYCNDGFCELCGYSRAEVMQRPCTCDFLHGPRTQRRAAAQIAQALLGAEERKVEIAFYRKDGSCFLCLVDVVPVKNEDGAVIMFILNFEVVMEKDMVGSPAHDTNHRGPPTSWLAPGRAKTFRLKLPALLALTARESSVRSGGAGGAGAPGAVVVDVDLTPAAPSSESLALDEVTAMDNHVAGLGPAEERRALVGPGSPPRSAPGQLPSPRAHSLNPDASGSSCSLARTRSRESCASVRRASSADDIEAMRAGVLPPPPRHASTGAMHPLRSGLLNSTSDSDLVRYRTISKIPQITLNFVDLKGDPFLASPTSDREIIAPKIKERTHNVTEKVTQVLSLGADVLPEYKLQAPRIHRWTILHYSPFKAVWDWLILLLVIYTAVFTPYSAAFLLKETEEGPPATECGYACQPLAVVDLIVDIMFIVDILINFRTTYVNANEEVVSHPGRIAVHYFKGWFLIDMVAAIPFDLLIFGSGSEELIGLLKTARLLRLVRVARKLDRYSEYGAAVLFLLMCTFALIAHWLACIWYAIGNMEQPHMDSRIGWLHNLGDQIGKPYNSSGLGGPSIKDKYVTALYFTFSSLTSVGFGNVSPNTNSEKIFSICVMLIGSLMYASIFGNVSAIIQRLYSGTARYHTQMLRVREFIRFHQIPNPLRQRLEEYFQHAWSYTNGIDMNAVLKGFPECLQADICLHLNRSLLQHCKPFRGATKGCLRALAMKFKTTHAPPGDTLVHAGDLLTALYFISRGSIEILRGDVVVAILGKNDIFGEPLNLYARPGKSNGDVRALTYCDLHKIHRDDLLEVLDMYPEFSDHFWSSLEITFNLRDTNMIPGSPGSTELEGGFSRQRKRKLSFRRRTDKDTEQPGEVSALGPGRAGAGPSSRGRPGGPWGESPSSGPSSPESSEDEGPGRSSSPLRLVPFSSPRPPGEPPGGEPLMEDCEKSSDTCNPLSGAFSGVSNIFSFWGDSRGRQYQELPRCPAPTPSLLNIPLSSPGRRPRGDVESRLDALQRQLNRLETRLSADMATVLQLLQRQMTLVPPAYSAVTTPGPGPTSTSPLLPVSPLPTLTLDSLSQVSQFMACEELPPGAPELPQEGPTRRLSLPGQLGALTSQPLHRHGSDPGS

Structure (SMILES) | hERG current change (%, negative = inhibition) at 10uM
CC(C)(C)SCCNC(=O)CN(c1ccc(F)cc1)S(=O)(=O)c1ccccc1 | 0.876%
CC(=O)Nc1ccc(S(=O)(=O)NCC2CCC(C(=O)N3CCN(c4ccccn4)CC3)CC2)cc1 (stereo not drawn) | 19.3%
Cc1cccc(N2C(=O)/C(=C/c3ccccn3)SC2=S)c1 | 13.1%
COc1ccc([C@@H](O)[C@@H](N)c2ccccc2)cc1.Cl | -0.673%
O=C1c2ccccc2C(=O)C12OC2c1ccc(Cl)cc1 (stereo not drawn) | 6.63%
CC1CCN(C(=O)Cn2c(=O)oc3cc(S(=O)(=O)N4CCCCC4)ccc32)CC1 | 10.8%
CN1/C(=C\C(=O)CSc2nnc(NCc3ccccc3)s2)C(C)(C)c2ccccc21 | -13.1%
COc1cccc(-c2nc(-c3ccc(NC(=O)c4ccncc4)cc3)no2)c1 | -0.767%
COCCN(C(=O)CNC(=O)c1ccco1)C(C(=O)NC1CCCC1)c1ccc(F)cc1 (stereo not drawn) | 11.9%
COc1cc(-c2cc(=O)c3c(O)c(OC)c(OC)cc3o2)cc(OC)c1O | 4.87%
CCCC(=O)Nc1nc2ccc(S(N)(=O)=O)cc2s1 | 4%
CCOc1ncccc1C(=O)Nc1cccc(S(=O)(=O)N2CCCCC2)c1 | -7.03%
CCOC(=O)c1sc2nc(CC(=O)OC)nc(N3CCN(c4ccc(OC)cc4)CC3)c2c1C | 7.34%
Cc1ccc(S(=O)(=O)N2CCCC2CNC(=O)C(=O)NCc2ccccn2)cc1 (stereo not drawn) | -14.1%
CCOC(=O)c1c(C)n(-c2ccc(F)cc2)c2ccc(O)cc12 | 16.4%
COc1cc(Nc2c3c(nc4ccccc24)CCC3)cc(OC)c1OC | -60%
Cc1ccc2c(c1)C1OCCC1C1N2C(=O)C2C(C(=O)O)C3C=CC21O3 (stereo not drawn) | 9.39%
COc1ccc(NC(=O)Cn2c(C)csc2=O)c(OC)c1 | 2.46%
CCN(CC)CCNC(=O)c1ccc2c(=O)n(CCc3ccccc3)c(=O)[nH]c2c1 | -30%
CCCCOc1ccc(C(C)NC(=O)CCS(=O)(=O)Cc2ccc(Cl)cc2)cc1 (stereo not drawn) | 10.2%
COc1ccccc1C1=NN(C(=O)c2ccccc2)C(c2ccc(Br)cc2)C1 (stereo not drawn) | 20.5%
Cc1ccc(Nc2nc(/N=C/NO)n[nH]2)cc1C | 13.5%

Structure (SMILES) | hERG current change (%, negative = inhibition) at 10uM
CC1CCN(C(=O)C(C)OC(=O)CSc2ccc([N+](=O)[O-])cc2)CC1 (stereo not drawn) | -50.1%
CC(=O)Nc1ccc(N2CCCC(C)C2)c([N+](=O)[O-])c1 (stereo not drawn) | 2.88%
CC(=O)OC(COc1cccc(C)c1)Cn1cnc2ccccc21.Cl (stereo not drawn) | -37.3%
COc1ccc(NC(=O)CSCc2ccc([N+](=O)[O-])cc2)cc1OC | -17.5%
Cc1ccccc1-n1ncc2c1CC(C)(C)CC2NC(=O)c1cn[nH]c1C (stereo not drawn) | -6.22%
COC(=O)c1ccc(C(=O)OC)c(NS(C)(=O)=O)c1 | -1.73%
CCOC(=O)N1CCN(C(=O)c2c(O)c3cccc4c3n(c2=O)CC4)CC1 | -0.319%
COc1ccc(Cl)cc1NC(=O)CCCNC(=O)c1ccc(Cl)cc1 | -4.84%
CC(C)(C)NC(=O)NC(=O)COC(=O)c1cccc(F)c1 | -1.01%
CCC1=C(OC(=O)N(CC)CC)N2C(=O)OC(=NCC3CC3)[C@]2(C)[C@H]2C1=CC[C@H]1C(=O)N(CC(=O)OC)C(=O)[C@H]12 | -5.67%
CCCn1nnc(NC(=O)C(C)C)n1 | 23%
COc1ccc(/C=C2/C(=O)N(c3ccccc3)N=C2C)cc1OC | 14.1%
Cc1cnc(C(=O)OCC(=O)Nc2cc(S(=O)(=O)N3CCCCC3)ccc2Cl)cn1 | 8.26%
CC(C)[C@H](NC(=O)N1CCn2c1nc1ccccc12)C(=O)NCc1ccccc1Cl | -0.447%
Cl.c1ccc(-n2cnc3cc(NCc4ccccn4)ccc32)cc1 | -20%
COc1ccc(CCNC(=O)CSc2nc(-c3ccco3)cc(C(F)(F)F)n2)cc1 | -7.9%
COc1ccc(OC)c(NC(=O)CCN2CCN(c3ccccc3F)CC2)c1 | -22.1%
CN1CCc2c1nc1ccccc1c2NC(=O)CN1CCCC1 | -1.61%
Cc1cc(C)c2c(N)c(-c3nnc(SCc4ccc(Cl)cc4)n3C)sc2n1 | 11.7%
O=C(CN1C(=O)c2ccccc2S1(=O)=O)c1ccccc1Cl | -11.1%
CC(=O)c1c(C)n(-c2ccc(Br)cc2)c2ccc(O)cc12 | 17.1%
CC(=O)Nc1ccc(S(=O)(=O)Oc2ccccc2N2C(=O)C3C4CCC(C4)C3C2=O)cc1 (stereo not drawn) | 3.09%

Structure (SMILES) | hERG current change (%, negative = inhibition) at 10uM
Cc1ccc(C(C(=O)NC2CCCC2)N(Cc2ccccc2)C(=O)c2csnn2)o1 (stereo not drawn) | 21.8%
COc1ccc(Nc2nc(N/N=C/c3ccc(N(C)C)cc3)nc(C)c2[N+](=O)[O-])cc1 | 21.5%
COC(=O)c1ccc(Cn2nnc3c(=O)[nH]c(C4CCCN(S(=O)(=O)c5ccccc5)C4)nc32)cc1 (stereo not drawn) | 16.7%
CC(C)Oc1ccc(/C(O)=C2/C(=O)C(=O)N(CCN3CCOCC3)C2c2ccccc2)cc1 (stereo not drawn) | 13.6%
CCOC(=O)CCSc1nc(-c2ccccc2)cc(C(F)(F)F)n1 | 4.47%
CSc1c[n+]2c(n1C)CCC2.[I-] | 9.47%
Brc1ccc(-c2ccccc2)cc1 | 0.132%
CCOC(=O)N1CCN(c2c(NCCN3CCN(Cc4ccccc4)CC3)c(=O)c2=O)CC1 | -12.9%
O=C(c1ccc(CS(=O)(=O)c2ccc(Br)cc2)o1)N1CCN(C2CCCCC2)CC1 | -22.4%
COc1ccc(Cl)cc1NC(=O)CCN1C(=O)C2C3C=CC(C4CC34)C2C1=O (stereo not drawn) | -24.4%
COc1ccc(-c2nnc3ccc(SCC(=O)Nc4cc(C)on4)nn23)cc1OC | 6.55%
CC(=O)Nc1ccc(N(C)S(C)(=O)=O)cc1 | -0.725%
O=C1CN2C(=Nc3ccc(Br)cc3C2c2ccccc2)CCN1 (stereo not drawn) | -16.5%
Cc1ccccc1CC(=O)Nc1cccnc1 | 14.4%
COc1ccccc1CCNC(=O)CCSc1nc(-c2ccco2)cc(C(F)(F)F)n1 | 13.6%
CN1CCN(c2ccc(Cl)cc2NC(=O)CC2OC(=O)c3ccccc32)CC1 (stereo not drawn) | -74.5%
CN(c1ccc(O)cc1)c1nc(-c2ccccc2)cs1 | 15.3%
CN(Cc1ccncc1)C1CC(=O)N(c2ccc(Cl)cc2)C1=O (stereo not drawn) | -17.9%
Cc1oc(-c2cccc(F)c2)nc1CN(Cc1ccccc1)C[C@@H]1CCC(=O)N1 | 7.22%
C/C(=N\NC(=O)COc1ccccc1)c1ccc(O)cc1 | 17.9%
CC(Cl)C(=O)N1c2ccccc2CCc2ccccc21 (stereo not drawn) | -5.02%
Cc1cc(Nc2ccc3c(c2)OCCO3)c2ccccc2n1.Cl | -56.1%

Structure (SMILES) | hERG current change (%, negative = inhibition) at 10uM
CC(C)CN(C(=O)CSc1n[nH]c(-c2cccs2)n1)C1CCS(=O)(=O)C1 (stereo not drawn) | -2.69%
Cc1ccc(C)c(-n2c(SCC(=O)N3CCCC3)nnc2-c2ccccn2)c1 | -0.403%
CC1CCc2c(C(=O)NCc3ccco3)csc2C1 (stereo not drawn) | -8.96%
Cc1cc(C)c2c(N)c(C(=O)NC3CCCC3)sc2n1 | 0.093%
Cc1c(C(=O)N(C)CCC#N)oc2ccc(S(=O)(=O)N3CC(C)CC(C)C3)cc12 (stereo not drawn) | -17.1%
Cl.O=C(CC12CC3CC(CC(C3)C1)C2)NCC(c1ccc(F)cc1)N1CCOCC1 (stereo not drawn) | 4.4%
COc1ccc(Cl)cc1NC(=O)Nc1cc(C)on1 | 0.43%
CCC1(CC)NC(=O)N(CC(=O)OC(C)C(=O)Nc2cc([N+](=O)[O-])ccc2OC)C1=O (stereo not drawn) | -6.42%
CCN(CC)C(CNC(=O)c1cc(=O)[nH]c2ccccc12)c1ccccc1Cl (stereo not drawn) | 3.58%
COCc1cc(C)nc(OCC(=O)N/N=C/c2ccc(O)cc2O)c1C#N | -15.6%
O=C(COC(=O)c1cccc(Cl)c1)NCCN1C(=O)CSC1=O | 9.89%
COc1ccc(-c2cc(-c3ccccc3)nc(SCC(=O)Nc3nccs3)c2C#N)cc1 | 7.1%
CCCc1nn(C)c(C(=O)Nc2ccccc2)c1Cl | -13.4%
N#Cc1ccc(OCC(=O)Nc2ccc(N3CCCC3)cc2)cc1 | -20.7%
COc1ccc2c(CC(=O)Nc3ccc(OC)nc3)coc2c1 | 3.6%
CC(C)C(=O)NN(C(=O)c1ccccc1)c1ccccc1 | 20.4%
CCCC(=O)Nc1ccccc1NC(=O)c1ccc(OC)cc1 | 11.9%
O=c1c([N+](=O)[O-])cccn1Cc1cccc(Cl)c1 | -3.53%
CC(=O)c1c(C)nc(-c2ccccc2)nc1N | 22.8%
CC(C)OC(=O)n1c(=S)oc2ccccc21 | 8.17%
NC(=O)c1ccc(SCC(=O)NC2CCCCC2)c([N+](=O)[O-])c1 | 23.8%
